The values below come from PMC9911399, “Two distinct binding modes provide the RNA-binding protein RbFox with extraordinary sequence specificity”.

To fix the notation:
T1: RBFOX1 RRM (Homo sapiens, UniProt Q9NWB1 109-208)
T1 sequence: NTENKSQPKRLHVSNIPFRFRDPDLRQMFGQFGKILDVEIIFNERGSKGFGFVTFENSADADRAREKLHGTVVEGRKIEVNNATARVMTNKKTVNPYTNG

B1: CGCAUAC (DNA:RNA)
RNA: GGGAGACCGGAAUUCAGAUUGUCCCGCAUACUUAAAUCCCGUCGUAGCCACCA
DNA 1: CAATCTGAATTCCGGTCTCCC
DNA 2: TGGTGGCTACGACGGGATT
B2: CAAUCAU (DNA:RNA)
RNA: B1 RNA with G26A, C27A, A28U, U29C, C31U
DNA 1: CAATCTGAATTCCGGTCTCCC
DNA 2: TGGTGGCTACGACGGGATT
B3: GCGUACG (DNA:RNA)
RNA: GGGAGACCGGAAUUCAGAUUGUCCGCGUACGUUAAAUCCCGUCGUAGCCACCA
DNA 1: CAATCTGAATTCCGGTCTCCC
DNA 2: TGGTGGCTACGACGGGATT
B4: GUAAACU (DNA:RNA)
RNA: B3 RNA with C26U, G27A, U28A, G31U
DNA 1: CAATCTGAATTCCGGTCTCCC
DNA 2: TGGTGGCTACGACGGGATT
B5: GAAACUU (DNA:RNA)
RNA: B1 RNA with C25G, G26A, C27A, U29C, A30U, C31U
DNA 1: CAATCTGAATTCCGGTCTCCC
DNA 2: TGGTGGCTACGACGGGATT
B6: GCCGGAG (DNA:RNA)
RNA: B3 RNA with G27C, U28G, A29G, C30A
DNA 1: CAATCTGAATTCCGGTCTCCC
DNA 2: TGGTGGCTACGACGGGATT
B7: UAAUUAA (DNA:RNA)
RNA: B1 RNA with C25U, G26A, C27A, A28U, C31A
DNA 1: CAATCTGAATTCCGGTCTCCC
DNA 2: TGGTGGCTACGACGGGATT
B8: GAAGCGG (DNA:RNA)
RNA: B3 RNA with C26A, G27A, U28G, A29C, C30G
DNA 1: CAATCTGAATTCCGGTCTCCC
DNA 2: TGGTGGCTACGACGGGATT
B9: UUCCCUA (DNA:RNA)
RNA: B1 RNA with C25U, G26U, A28C, U29C, A30U, C31A
DNA 1: CAATCTGAATTCCGGTCTCCC
DNA 2: TGGTGGCTACGACGGGATT
B10: UGCAGUC (DNA:RNA)
RNA: B1 RNA with C25U, U29G, A30U
DNA 1: CAATCTGAATTCCGGTCTCCC
DNA 2: TGGTGGCTACGACGGGATT
B11: CCGUUCU (DNA:RNA)
RNA: B3 RNA with G25C, A29U, G31U
DNA 1: CAATCTGAATTCCGGTCTCCC
DNA 2: TGGTGGCTACGACGGGATT
B12: GUGUUCU (DNA:RNA)
RNA: B3 RNA with C26U, A29U, G31U
DNA 1: CAATCTGAATTCCGGTCTCCC
DNA 2: TGGTGGCTACGACGGGATT
B13: AAAGCAG (DNA:RNA)
RNA: B1 RNA with C25A, G26A, C27A, A28G, U29C, C31G
DNA 1: CAATCTGAATTCCGGTCTCCC
DNA 2: TGGTGGCTACGACGGGATT
B14: CGAUAUG (DNA:RNA)
RNA: B3 RNA with G25C, C26G, G27A, C30U
DNA 1: CAATCTGAATTCCGGTCTCCC
DNA 2: TGGTGGCTACGACGGGATT
B15: UGUAGUG (DNA:RNA)
RNA: B1 RNA with C25U, C27U, U29G, A30U, C31G
DNA 1: CAATCTGAATTCCGGTCTCCC
DNA 2: TGGTGGCTACGACGGGATT
B16: GAAGAGC (DNA:RNA)
RNA: B3 RNA with C26A, G27A, U28G, C30G, G31C
DNA 1: CAATCTGAATTCCGGTCTCCC
DNA 2: TGGTGGCTACGACGGGATT
B17: CGUAGUU (DNA:RNA)
RNA: B1 RNA with C27U, U29G, A30U, C31U
DNA 1: CAATCTGAATTCCGGTCTCCC
DNA 2: TGGTGGCTACGACGGGATT
B18: GGCAAAA (DNA:RNA)
RNA: B1 RNA with C25G, U29A, C31A
DNA 1: CAATCTGAATTCCGGTCTCCC
DNA 2: TGGTGGCTACGACGGGATT
B19: ACGAAUA (DNA:RNA)
RNA: B3 RNA with G25A, U28A, C30U, G31A
DNA 1: CAATCTGAATTCCGGTCTCCC
DNA 2: TGGTGGCTACGACGGGATT
B20: GUAAUUU (DNA:RNA)
RNA: B1 RNA with C25G, G26U, C27A, A30U, C31U
DNA 1: CAATCTGAATTCCGGTCTCCC
DNA 2: TGGTGGCTACGACGGGATT

Positions count from the first letter of the chain named. The list shows a part of the results.

The test concerns the target T1, RBFOX1 RRM. Description: EMSA; HiTS-Eq, 1 nM pool, 10 min; buffer printed only for the single-RNA assays: 10 mM Tris pH 7.5, 150 mM NaCl, 3.4 mM EDTA, 0.001% NP-40, 30 C. The note with it: tags: His6 N-terminal (pET28a); label: 5' 32P. The essentials:
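Relative association constants, normalised to the cognate motif, were derived by comparing read counts of each RNA species with those of the control reaction. The RNA sequenced was the free fraction, separated by 8% native PAGE after a 10 min equilibration in 50 µL of 1 nM 5′-radiolabelled RNA (7 randomized nucleotides) with increasing concentrations of purified wild-type or mutant RbFox RRM.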
Consider B1, for which the binding signal is 0.0068 KA relative to UGCAUGU.
On to B2, for which the binding signal is 0.000223 KA relative to UGCAUGU.
For the molecule B3, the binding signal was 0.0138 KA relative to UGCAUGU.
As for B4, the binding signal is 0.00365 KA relative to UGCAUGU.
Regarding B5, the binding signal is 0.00505 KA relative to UGCAUGU.
Take B6: the binding signal was 0.0113 KA relative to UGCAUGU.
As to B7, the binding signal was 0.00562 KA relative to UGCAUGU.
Regarding B8, the binding signal is 0.014 KA relative to UGCAUGU.
As for B9, the binding signal is 0.00517 KA relative to UGCAUGU.
For B10, the binding signal is 0.0191 KA relative to UGCAUGU.
Consider B11, for which the binding signal is 0.0107 KA relative to UGCAUGU.
For the molecule B12, the binding signal is 0.0169 KA relative to UGCAUGU.
For B13 the value was 0.00469 KA relative to UGCAUGU; for B14, 0.0124 KA relative to UGCAUGU.
With B15, the binding signal is 0.0216 KA relative to UGCAUGU.
With B16, the binding signal is 0.013 KA relative to UGCAUGU.
As to B17, the binding signal was 0.00919 KA relative to UGCAUGU.
In the case of B18, the binding signal was 0.00604 KA relative to UGCAUGU.
For the molecule B19, the binding signal is 0.00301 KA relative to UGCAUGU.
In the case of B20 it was 0.00581 KA relative to UGCAUGU.
